Test results taken from PubChem BioAssay AID504339 (National Center for Advancing Translational Sciences (NCATS), 2011).
Values joined by “and” are separate entries in the source; they are usually repeats but may differ in a detail not shown here. Equal entries are not always repeated. In all, about 390,000 compounds went through this assay and about 17,000 (4.4%) were called active. This list was built around the results that the source calls inconclusive (neither active nor inactive); the mix of calls is not that of the screen. Calls come from the whole dose curve; as a rule, active = well fitted inhibition curve with a large enough effect; inconclusive = small, poorly fitted or top-dose-only effect; inactive = no such curve, though single readings can be large or run the other way. Potencies of inconclusive entries are doubtful fits and often do not repeat.

Target: Lysine-specific demethylase 4A (Homo sapiens) (UniProt O75164)
Chain of UniProt O75164 (O75164 whole entry, looked up, the tested form may be a part): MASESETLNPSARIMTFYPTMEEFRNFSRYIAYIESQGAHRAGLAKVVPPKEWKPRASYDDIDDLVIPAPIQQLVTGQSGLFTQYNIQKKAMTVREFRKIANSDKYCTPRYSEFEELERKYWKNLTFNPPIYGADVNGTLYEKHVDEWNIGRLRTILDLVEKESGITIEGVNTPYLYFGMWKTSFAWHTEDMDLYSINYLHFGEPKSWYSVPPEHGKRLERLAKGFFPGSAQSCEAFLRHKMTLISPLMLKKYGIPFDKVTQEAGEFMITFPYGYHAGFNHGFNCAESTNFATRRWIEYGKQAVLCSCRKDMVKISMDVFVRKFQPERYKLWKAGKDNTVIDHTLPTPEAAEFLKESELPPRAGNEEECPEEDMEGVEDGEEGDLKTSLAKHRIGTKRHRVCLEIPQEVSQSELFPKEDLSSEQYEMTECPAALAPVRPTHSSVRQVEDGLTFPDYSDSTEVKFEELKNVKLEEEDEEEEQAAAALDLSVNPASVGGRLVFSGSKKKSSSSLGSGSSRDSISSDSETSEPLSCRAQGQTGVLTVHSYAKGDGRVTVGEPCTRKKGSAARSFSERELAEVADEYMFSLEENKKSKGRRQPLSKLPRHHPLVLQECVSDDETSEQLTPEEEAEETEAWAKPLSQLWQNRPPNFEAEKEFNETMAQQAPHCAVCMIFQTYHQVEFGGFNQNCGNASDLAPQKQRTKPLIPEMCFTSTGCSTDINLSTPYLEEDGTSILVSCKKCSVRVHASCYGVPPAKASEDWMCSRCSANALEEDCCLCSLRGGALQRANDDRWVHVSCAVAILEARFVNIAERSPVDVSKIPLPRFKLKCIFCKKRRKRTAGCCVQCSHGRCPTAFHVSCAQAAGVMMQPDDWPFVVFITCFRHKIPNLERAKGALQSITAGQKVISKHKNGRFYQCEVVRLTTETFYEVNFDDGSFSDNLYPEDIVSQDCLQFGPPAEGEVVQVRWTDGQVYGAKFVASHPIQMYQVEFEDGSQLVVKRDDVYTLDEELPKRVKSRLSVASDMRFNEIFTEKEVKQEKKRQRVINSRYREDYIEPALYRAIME
Experiment: qHTS Assay for Inhibitors of JMJD2A-Tudor Domain; note: nearly all actives have a fitted effect of over 50% in size
Conditions: AlphaScreen JMJD2A-Tudor / H3K4me3 peptide binding; activity change, negative = inhibition: at 114 µM (top of the series)
% is set by controls: 0 for no effect and ±100 for the full control effect; potency is the fitted concentration of half-maximal effect; tags give direction and shape of the fitted curve.

Row | SMILES | Potency | activity change, negative = inhibition
1 | CCSc1nc2nn(-c3ccccc3)c(=O)c-2c2n1CCCCC2 | inconclusive: 79.4 µM [inhibitor, single point] | –
2 | CCN1C(=O)CCN(C2CCCC2)c2nc(Nc3ccc(C(=O)NC4CCN(C)CC4)cc3OC)ncc21 | inconclusive: 56.2 µM [inhibitor, partial curve] | –
3 | Cc1ccc(NC(=O)C2CCCN2C(=O)Oc2ccccc2)c(C)c1 (stereo not given) | – | inactive: -9.09%
4 | CC1=NN(C(N)=S)C(=O)C1N=Nc1ccc([N+](=O)[O-])cc1 (stereo not given) | inconclusive: 25.1 µM [inhibitor, full curve, poor fit] | –
5 | CC1CCCN(S(=O)(=O)c2ccc3[nH]c4c(c3c2)CCCC4)C1 (stereo not given) | inconclusive: 63.1 µM [inhibitor, partial curve, poor fit] | –
6 | CN(C)c1cccc(NC(=O)Cc2ccc(F)cc2)c1 | inconclusive: 50.1 µM [inhibitor, partial curve] | –
7 | O=[N+]([O-])c1cc(S(=O)(=O)Nc2ccccc2)ccc1-n1nnc2ccccc21 | inconclusive: 63.1 µM [inhibitor, partial curve] | –
8 | C#CCOCCOCCOCCNc1nc(N2CCN(C(=O)[C@H](CO)n3cc([C@@H](N)C(C)C)nn3)CC2)nc(N2CCN(C(=O)[C@H](CO)n3cc([C@@H](N)C(C)C)nn3)CC2)n1 | active: 79.4 µM | –
9 | COc1ccc(S(=O)(=O)NCC(c2cccnc2)N2CCN(c3ccc(F)cc3)CC2)cc1C (stereo not given) | inconclusive: 56.2 µM [inhibitor, partial curve] | –
10 | Cc1ccc(N(CN2C(=O)c3ccccc3C2=O)C(=O)c2ccc([N+](=O)[O-])cc2[N+](=O)[O-])cc1 | inconclusive: 44.7 µM [inhibitor, partial curve] | –
11 | COc1ccc(S(=O)(=O)c2c(N)n(Cc3ccco3)c3nc4ccccc4nc23)cc1 | – | inactive: -20.2%
12 | Cc1ccc(C(=O)NCC(=O)OC(C)C(=O)NC2CCCc3ccccc32)cc1 (stereo not given) | – | inactive: -13.5%
13 | O=C(O)C1CC=CCC1C(=O)Nc1ccc2c(c1)OCCO2 (stereo not given) | inconclusive: 89.1 µM [inhibitor, single point] | –
14 | CCOC(=O)Cc1nn[nH]n1 | – | inactive: 2.78%
15 | CNc1oc(Cc2ccccc2)nc1S(=O)(=O)c1ccccc1 | active: 3.16 µM | –
16 | Cc1ccc(C)c(Cn2c(=O)n(CC3CCC(C(=O)N4CCOCC4)CC3)c(=O)c3sccc32)c1 (stereo not given) | – | inactive: -25%
17 | O=C(CSc1nncn1-c1ccccc1)Nc1ccc(N2CCOCC2)cc1 | active: 10 µM | –
18 | COc1cccc(CN(C)C(=O)c2cccc(S(=O)(=O)N3CCN(Cc4ccccc4)CC3)c2)c1OC | – | inactive: -17.9%
19 | COC(=O)C1C2C=CC3(CN(Cc4ccco4)C(=O)C13)O2 (stereo not given) | – | inactive: -7.98%
20 | COc1ccc(CCNC(=O)C(CC(C)C)NC(N)=O)cc1 (stereo not given) | – | inactive: -2.05%
21 | COc1ccc2[nH]c3ccccc3c2c1 | – | inactive: -18.3%
22 | CC(=O)N1CCc2c(sc3c2c(=O)n(-c2cccc(Cl)c2C)c(=O)n3Cc2ccccc2C)C1 | inconclusive: 28.2 µM [inhibitor, partial curve] | –
23 | O=C(CCCCn1c(=O)[nH]c2ccsc2c1=O)N1CCN(c2cccc(C(F)(F)F)c2)CC1 | – | inactive: -13%
24 | Cc1c(NC(=O)COC(=O)CSc2ccc(C(N)=O)cc2[N+](=O)[O-])c(=O)n(-c2ccccc2)n1C | inconclusive: 10 µM [inhibitor, full curve] | –

Row | SMILES | Potency | activity change, negative = inhibition
25 | C(=N\Nc1nc2ccccc2s1)/c1ccccn1 | inconclusive: 44.7 µM [inhibitor, partial curve] | –
26 | CN(C)c1ccc(CN(CC2CCCO2)C(=O)c2cccs2)cc1 (stereo not given) | inconclusive: 35.5 µM [inhibitor, partial curve] | –
27 | CN(C)c1ccc(C(=S)N2CCN(c3ccc([N+](=O)[O-])cc3)CC2)cc1 | inconclusive: 3.16 µM [inhibitor, partial curve] | –
28 | O=S(=O)(c1ccc(NC(=S)NN=C(C2CC2)C2CC2)cc1)N1CCOCC1 | inconclusive: 17.8 µM [inhibitor, partial curve, poor fit] | –
29 | Cn1cc(C(=O)c2ccc(Cl)cc2)cc1-c1nc2ccccc2n1C | active: 56.2 µM | –
30 | O=C(NN=Cc1ccccc1OC(F)F)c1cccc(S(=O)(=O)N2CCCC2)c1 | – | inactive: -4.86%
31 | O=P(CCO)(c1ccccc1)c1ccccc1 | – | inactive: -7.9%
32 | CC1CCCCC1NC(=O)NC(=O)COC(=O)c1nccnc1N (stereo not given) | inconclusive: 35.5 µM [inhibitor, partial curve] | –
33 | Cc1ccc(N2CCN(/N=C/c3cccnc3)CC2)cc1 | inconclusive: 39.8 µM [inhibitor, partial curve] | –
34 | CN(C)c1ccc(C2SCCN2C(=O)c2ccc([N+](=O)[O-])cc2)cc1 (stereo not given) | inconclusive: 39.8 µM [inhibitor, single point] | –
35 | CCN(Cc1ccccc1)c1ccc(/C=N/NS(=O)(=O)c2cccc([N+](=O)[O-])c2)cc1 | inconclusive: 50.1 µM [inhibitor, partial curve] | –
36 | CCOC(=O)c1c(-c2ccccc2)c2cc(OC)ccc2n1CCCN(C)C | – | inactive: -18.7%
37 | COc1cccc(CNS(=O)(=O)c2ccc3[nH]c4c(c3c2)CCCCC4)c1 | inconclusive: 44.7 µM [inhibitor, partial curve] | –
38 | CCCOC(=O)C1=C(C)NC2=C(C(=O)C(C(=O)OC)C(C)C2)C1c1ccc(N(CC)CC)cc1 (stereo not given) | – | inactive: -32.3% [at 57.1 µM]
39 | CCOc1ccc(C(=O)OCCN(CC)CC)cc1 | – | inactive: -8.3%
40 | COc1ccc(C(O)(c2ccccc2OC)C(CN2CCOCC2)c2ccccc2)cc1 (stereo not given) | inconclusive: 5.62 µM [inhibitor, full curve, poor fit] | –
41 | Cc1sc2ncn(CC(=O)N3CCN(c4ccc(F)cc4)CC3)c(=O)c2c1S(=O)(=O)N1CCOCC1 | – | inactive: -7.42%
42 | O=C(N/N=C/c1ccc(N2CCCCC2)o1)c1ccccc1 | active: 50.1 µM | –
43 | C/C(C/C(C)=C1/SC(=S)NC1=O)=C1\SC(=S)NC1=O | inconclusive: 31.6 µM [inhibitor, single point] | –
44 | COc1ccc2c(c1OC)C(=O)N1C(C(=O)O)Cc3c([nH]c4ccccc34)C21 (stereo not given) | inconclusive: 39.8 µM [inhibitor, single point] | –
45 | Cc1ccc(C(=O)NC(=S)NNC(=O)CCN2CCOCC2)cc1 | – | inactive: -18.6%
46 | COc1ccc2[nH]cc(CCNC(=O)Nc3ccccc3)c2c1 | inconclusive: 79.4 µM [inhibitor, partial curve] and inconclusive: 63.1 µM [inhibitor, partial curve] | –
47 | COc1ccc(NC(=O)CCS(=O)(=O)c2cccc3nonc23)cc1 | – | inactive: -10.1%
48 | Oc1ccc2ccccc2c1CNc1ccccn1 | – | inactive: -18.1%

Row | SMILES | Potency | activity change, negative = inhibition
49 | O=C(C[C@@H]1C/C=C\C[C@@H](NC(=O)OCC2c3ccccc3-c3ccccc32)C(=O)OC[C@@H](Cc2ccccc2)NC1=O)NCCO | inconclusive: 112 µM [inhibitor, partial curve, poor fit] | –
50 | COc1ccc(S(=O)(=O)N(C(=O)C(C)C)c2ccc3oc(=O)sc3c2)cc1 | – | inactive: -20.8%
51 | COc1cc(/C=N/N(c2ccccc2)c2ccccc2)ccc1O | active: 31.6 µM | –
52 | CC(=O)c1cccc(NS(=O)(=O)c2ccc3c(c2)N(C(C)=O)CCO3)c1 | inconclusive: 39.8 µM [inhibitor, single point] | –
53 | O=C(CSc1nc(Nc2ccccc2)nc(N2CCOCC2)n1)Nc1ccc([N+](=O)[O-])cc1 | inconclusive: 31.6 µM [inhibitor, partial curve] | –
54 | Cc1ccc2c(Sc3ccc(Cl)cc3)c(C(=O)NCCC(C)C)[nH]c2c1 | inconclusive: 50.1 µM [inhibitor, partial curve] | –
55 | COc1ccc(OC(=O)/C=C/c2ccc([N+](=O)[O-])cc2)cc1 | – | inactive: -6.82%
56 | CCOC(=O)C(=O)NCC(c1cccs1)S(=O)(=O)c1ccc(C)cc1 (stereo not given) | inconclusive: 31.6 µM [inhibitor, single point] | –
57 | Cc1c(C(=O)N(Cc2ccc(N(C)C)cc2)CC2CCCO2)oc2ccccc12 (stereo not given) | active: 31.6 µM and active: 28.2 µM | –
58 | CCOc1ccc(-c2c(C(=O)N/N=C/c3ccoc3)nnn2-c2nonc2N)cc1 | – | inactive: -11.5%
59 | Cc1ccc(NC(=S)NNC(=O)c2cccc([N+](=O)[O-])c2)cc1Cl | inconclusive: 50.1 µM [inhibitor, partial curve] | –
60 | Cc1cccc(CNS(=O)(=O)c2ccc(-c3ccc(=O)[nH]n3)s2)c1 | inconclusive: 14.1 µM [inhibitor, full curve, poor fit] | –
61 | FC(F)(F)c1cccc(-c2ccc(-c3csnn3)o2)c1 | inconclusive: 89.1 µM [inhibitor, partial curve] | –
62 | C/C(=N/O)c1cccc(N2Cc3ccccc3C2)c1 | inconclusive: 44.7 µM [inhibitor, partial curve] | –
63 | CC(C)c1ccc(NC(=O)C2CCC(CNC(=O)[C@@H]3Cc4ccccc4CN3)CC2)cc1 (stereo not given in full) | – | inactive: -14.3%
64 | CN(C)c1ccc(S(=O)(=O)NCC(=O)OCC(=O)Nc2cccc(Cl)c2)cc1[N+](=O)[O-] | inconclusive: 28.2 µM [inhibitor, partial curve] | –
65 | CC(C)OCC(O)CCc1n[nH]c(=S)n1-c1ccccc1 (stereo not given) | active: 6.31 µM | –
66 | O=C(CN1C(=O)/C(=C/c2ccc(C(F)(F)F)cc2)Sc2ccccc21)NCCCN1CCOCC1 | – | inactive: -19.3%
67 | C=CCOc1cccc(C2/C(=C(/O)c3ccccc3)C(=O)C(=O)N2CCN2CCOCC2)c1 (stereo not given) | active: 79.4 µM | –
68 | COc1cc(C#Cc2c(-c3cncn3C)n(C)c3ccc(-c4ccc(OC)c(OC)c4)cc23)cc(OC)c1 | active: 44.7 µM | –
69 | CCCCn1c(N)c(N(CC(C)C)C(=O)CSCC(=O)Nc2ccc(OC)cc2)c(=O)[nH]c1=O | – | inactive: -20%
70 | O=C(NCc1cnc2ccccn12)C1CCC(=O)N(Cc2ccccc2F)C1 (stereo not given) | – | inactive: -2.92%
